Reference: PubChem BioAssay AID1030 (National Center for Advancing Translational Sciences (NCATS), 2008)
The campaign covered roughly 220,000 compounds. About 16,000 (7.3%) were called active. The inconclusive results got no clear call from the source; some entries with a clear call stand among them for comparison. Calls come from the whole dose curve; as a rule, active = well fitted inhibition curve with a large enough effect (not every such curve was filed as active); inconclusive = small, poorly fitted or top-dose-only effect, or another doubt; inactive = no such curve, though single readings can be large or run the other way. Where the call is inconclusive, the potency comes from a doubtful curve fit.

Target: Aldehyde dehydrogenase 1A1 (Homo sapiens) (UniProt P00352)
Experiment: qHTS Assay for Inhibitors of Aldehyde Dehydrogenase 1 (ALDH1A1)
Details: Purified ALDH1A1, NADH fluorescence, propionaldehyde substrate; series mostly up to 75.3 µM
Potency is the fitted concentration of half-maximal effect; tags give direction and shape of the fitted curve.

Sequence of UniProt P00352 (P00352 whole entry, looked up): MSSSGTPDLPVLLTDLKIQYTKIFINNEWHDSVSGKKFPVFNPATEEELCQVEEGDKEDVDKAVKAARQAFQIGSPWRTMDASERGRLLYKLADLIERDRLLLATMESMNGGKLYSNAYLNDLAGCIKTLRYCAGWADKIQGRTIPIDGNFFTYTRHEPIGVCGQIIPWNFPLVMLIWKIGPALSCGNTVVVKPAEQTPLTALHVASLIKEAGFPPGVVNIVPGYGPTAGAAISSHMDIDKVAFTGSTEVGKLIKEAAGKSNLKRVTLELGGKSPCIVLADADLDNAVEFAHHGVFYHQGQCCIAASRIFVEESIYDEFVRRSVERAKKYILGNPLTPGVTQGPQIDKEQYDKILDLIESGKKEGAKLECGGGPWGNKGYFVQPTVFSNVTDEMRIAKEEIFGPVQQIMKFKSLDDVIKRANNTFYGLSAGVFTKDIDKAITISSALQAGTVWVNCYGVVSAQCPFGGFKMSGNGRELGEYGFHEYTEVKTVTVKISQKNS

Potency, inconclusive:
CCOC(=O)N1CCN(C(=O)c2ccccc2Oc2ccccc2)CC1 39.8 µM [inhibitor, single point]
CCOC(=O)c1cc(NC(=O)CCC(=O)O)ccc1N1CCCCC1 28.2 µM [inhibitor, single point]
CCOC(=O)/C(C#N)=C\c1ccc(O)c(OC)c1 37.7 µM [inhibitor, single point]
COCCCNc1oc(-c2cccs2)nc1S(=O)(=O)c1ccc(C)cc1 39.8 µM [inhibitor, single point]
NC(=O)c1nn(-c2ccccc2)nc1NC(=O)CSc1nnnn1-c1ccc(Cl)cc1 25.1 µM [inhibitor, single point]
O=S(=O)(c1cccs1)N1CN(Cc2ccc(F)cc2)c2nc3ccccc3nc21 22.4 µM [inhibitor, partial curve]
C=CCSc1nc2c(c(=N)n1CC=C)C1CCCC1S2 (centres undefined) 7.94 µM [inhibitor, partial curve]
CCCCCc1ccc(OCCOCCn2c[n+](C)c3ccccc32)c(CCCCC)c1 39.8 µM [inhibitor, single point]
COc1cc(CN2CCN(c3cccc(C)c3C)CC2)cc([N+](=O)[O-])c1O 44.7 µM [inhibitor, single point]
COc1ccccc1NCC(O)COc1ccc(C(C)(C)C)cc1 (centres undefined) 12.6 µM [inhibitor, partial curve]
CCOc1ccc2nc(SCc3ccccc3C#N)sc2c1 20 µM [inhibitor, single point]
COc1ccc(C2Nc3ccccc3C(=O)N2c2ccc(F)cc2)cc1CSc1ccccn1 (centres undefined) 20 µM [inhibitor, partial curve]
COc1cc(NS(=O)(=O)c2ccc(NC(=O)/C(=C/c3ccccc3Cl)NC(=O)c3ccccc3)cc2)nc(OC)n1 35.5 µM [inhibitor, single point]
CC(=O)c1c(C)nn(C(=O)N2CCOCC2)c1C 39.8 µM [inhibitor, single point]
O=C(CNS(=O)(=O)c1ccccc1)Nc1ccc(C(F)(F)F)cc1 39.8 µM [inhibitor, single point]
O=[N+]([O-])c1cc2c(cc1Br)CCN2 39.8 µM [inhibitor, single point]
Cc1cc(C)cc(OCc2nnc(SCC(=O)N3CCN(c4ccccc4)CC3)o2)c1 39.8 µM [inhibitor, single point]
CCN(CC(=O)Nc1cccc(F)c1)Cc1nc2ccccc2c(=O)[nH]1 31.6 µM [inhibitor, single point]
Clc1ccc(-c2noc(CN3CCN(c4ccccc4)CC3)n2)cc1 37.7 µM [inhibitor, partial curve, poor fit]
CN(Cc1c(C(=O)N2CCc3ccccc3C2)nc2ccc(Cl)cn12)C(C1CC1)C1CC1 31.6 µM [inhibitor, single point]
N#CC(C#N)=C1C=CC=CN1/C(=C\c1ccccc1Cl)C(=O)c1ccccc1 20 µM [inhibitor, partial curve]
Cc1ccc(NC(=S)N(Cc2ccc(Cl)cc2)Cc2ccc(C(=O)O)cc2)cc1Cl 39.8 µM [inhibitor, single point]
N=c1c(C(=O)NCc2ccco2)cc2c(=O)n3ccccc3nc2n1Cc1ccc(Cl)cc1 14.1 µM [inhibitor, partial curve]
O=C(CSc1nc2nc(-c3cccs3)cc(C(F)(F)F)c2c(=O)[nH]1)NCc1ccco1 25.1 µM [inhibitor, partial curve]
COc1ccc(OC)c(C2=NOC(C(=O)NCC3CCCO3)C2)c1 (centres undefined) 37.7 µM [inhibitor, single point]
COCC(=O)N1CCC2(CC1)CCN(c1ccccn1)CC2 28.2 µM [inhibitor, partial curve]
c1cc2cn[nH]c2cc1NC1CCCCCC1 22.4 µM [inhibitor, single point]
Cc1ccc(N2N=C(c3ccc(F)cc3)CC2c2ccco2)cc1 (centres undefined) 20 µM [inhibitor, partial curve]
N#Cc1c(NC(=O)CSc2ncnc3c2cnn3-c2ccccc2Cl)sc2c1CCCC2 28.2 µM [inhibitor, single point]
CC(C)N=C1NN=C(c2ccc(F)cc2)CS1 39.8 µM [inhibitor, single point]
COC(=O)CSC1=C(C#N)C(c2ccc(C(C)C)cc2)CC(=O)N1 (centres undefined) 20 µM [inhibitor, partial curve, poor fit]
COc1ccc(C(=O)N2CCC[C@@]3(CCN(Cc4ccc(C#N)cc4)C3)C2)cc1 39.8 µM [inhibitor, single point]
Cc1ccc(/C=N/Nc2nc(C(C)(C)C)cs2)o1 39.8 µM [inhibitor, single point]
O=C(CCc1ccccc1)NC(=S)Nc1ccc(S(=O)(=O)N2CCOCC2)cc1 39.8 µM [inhibitor, single point]
CCOC(=O)C1CCN(C(=O)CCc2c(C)nc3cc(-c4ccccc4)nn3c2C)CC1 39.8 µM [inhibitor, single point]
CCc1ccc(C2CC(c3ccco3)=NN2S(C)(=O)=O)cc1 (centres undefined) 39.8 µM [inhibitor, single point]
Cc1ccc(C)c(/C(O)=C2\C(=O)C(=O)N(CCCn3ccnc3)C2c2ccncc2)c1 (centres undefined) 39.8 µM [inhibitor, single point]
COc1ccc(-c2cnnn2-c2ccc(N)cc2)cc1OC 39.8 µM [inhibitor, single point]
Cc1ccc(C(=O)CSc2ccccn2)cc1 44.7 µM [inhibitor, single point]
CC(C)Cc1csc(NC(=O)c2ccccc2Cl)c1C(=O)O 25.1 µM [inhibitor, single point]
CC(=O)c1cccc2c(O)c(C3=Nc4ccccc4C3=O)[nH]c12 25.1 µM [inhibitor, single point]

Potency, inactive:
N#Cc1c(-c2cccc(F)c2)cc(-c2ccccc2)nc1Br
Cc1ccccc1/C=C/c1cc[n+](C)cc1
CC(=O)c1cccc(NC(=O)C(CC(C)C)NC(=O)C2CCCCC2)c1 (centres undefined)
CCn1c(/C=C/c2ccccc2)nc2ccccc2c1=O
COc1cc(NC(=O)c2c(F)c(F)c(F)c(F)c2F)c(OC)cc1Cl
CCN(CC(=O)Nc1cccc(C#N)c1)CC(=O)Nc1cccc(OC)c1
Cc1ccc(/C=C/C(=O)CCC(=O)O)cc1
Cc1cc(/C=C2/SC(=O)NC2=O)c(C)n1-c1ccc(N2CCOCC2)cc1
COC(=O)[C@@]1(Cc2ccc(F)cc2)[C@H]2c3cc(C(=O)N4CCCC4)n(CCN4CNCC4=O)c3C[C@H]2CN1C(=O)c1ccccc1
O=C1N=C(N2CCCC2C(=O)O)S/C1=C\c1ccco1 (centres undefined)
O=C(NCCc1c[nH]c2ccccc12)C(=O)NCC(c1cccnc1)N1CCN(c2ccccc2)CC1 (centres undefined)
COc1ccc(/C=N/NC(=O)c2ccncc2)cc1CN1CCN(c2ccc(F)cc2)CC1
C[C@]1(C(=O)NCc2cc(F)cc(C(F)(F)F)c2)C=C[C@@H](Cc2ccccc2)N1C(=O)c1ccccc1
O=c1[nH][nH]c2cc(=O)n(-c3ccc(Cl)cc3)nc12
Cc1ccc(S(=O)(=O)c2nc(NN(C)C)sc2Cl)cc1
COc1ccccc1CN1CC2(CCN(C(=O)c3cnccn3)CC2)C1
COc1ccc(C(=O)N2CCC(C(=O)O)CC2)cc1
O=C(CCN1C(=O)C2C3C=CC(C4CC34)C2C1=O)Oc1cccc2cccnc12 (centres undefined)
COc1cccc(CC2(CO)CCN(Cc3cnc(N4CCOCC4)s3)CC2)c1
O=C(Nc1nnc(-c2ccccc2)o1)c1ccc(Cl)cc1
Cc1nn(C)c(C(=O)NNC(=S)NCC(C)C)c1Cl
Cc1cnnn1-c1cccc([N+](=O)[O-])c1
COC(=O)[C@H](C)NC(=O)Nc1cccc(C(F)(F)F)c1
O=C(CSc1nnc(SCC(=O)NCc2ccc3c(c2)OCO3)s1)NCc1ccc2c(c1)OCO2
CCOc1ccc(NS(=O)(=O)c2ccc3[nH]cc(C(=O)NCCOC)c(=O)c3c2)cc1
Cn1c(SCc2nc3ccccc3[nH]2)nnc1-c1ccccn1
Cc1cccc(-n2cc(CN3CCN(C(=O)c4ncn[nH]4)CC3)c(-c3cccc(F)c3)n2)c1
CCOC(=O)c1c(C)[nH]c(C(=O)OCC(=O)N2CC(C)OC(C)C2)c1C (centres undefined)

Potency, active:
COc1ccc(C2=C/C(=C\c3cccc(OC(C)=O)c3)C(=O)O2)cc1 25.1 µM
O=C(NC(=S)Nc1ccc2[nH]ncc2c1)c1ccccc1 10 µM
Cn1c(SCC(=O)N2CCCc3ccccc32)nnc1-c1ccccc1 25.1 µM
Fc1ccc(NC(=S)NNc2ncc(C(F)(F)F)cc2Cl)c(F)c1 4.47 µM
CN(C)c1ccc(N/C=C/C(=O)c2ccco2)cc1 28.2 µM
